Assay results reported in the supplement of paper PMC11876631.
Residue numbers refer to the chain shown, from its start. Names and notes keep the numbering of the source. ± gives the standard deviation of the averaged measurements. Laboratory Escherichia coli strains with one amino-acid change in an essential protein, pooled on minimal glucose agar with carbenicillin or gentamicin at twice the control MIC (plus kanamycin and chloramphenicol for the plasmids), 48 h. Fold change of barcode share against drug-free plates; higher = less susceptible. Active = above 20 in both replicates (the paper's putatively resistant). '<' = one read or none on drug, '>' = one read or none on a drug-free plate. Shares are relative, so most strains fall below 1 when a few take over. Listed are strains with at least 15 reads on both drug-free plates, and hits; most hits rest on fewer reference reads. Replicate rank correlation about 0.5. Edits are read from barcodes.

B1: ispA L18A (protein)
chain: MDFPQQLEACVKQANQAASRFIAPLPFQNTPVVETMQYGALLGGKRLRPFLVYATGHMFGVSTNTLDAPAAAVECIHAYSLIHDDLPAMDDDDLRRGLPTCHVKFGEANAILAGDALQTLAFSILSDADMPEVSDRDRISMISELASASGIAGMCGGQALDLDAEGKHVPLDALERIHRHKTGALIRAAVRLGALSAGDKGRRALPVLDKYAESIGLAFQVQDDILDVVGDTATLGKRQGADQQLGKSTYPALLGLEQARKKARDLIDDARQSLKQLAEQSLDTSALEALADYIIQRNK
B2: ispA L18W (protein)
chain: B1 chain with A18W
B3: ispA L18Q (protein)
chain: B1 chain with A18Q
B4: ispA L208A (protein)
chain: B1 chain with A18L, L208A
B5: ispA L208W (protein)
chain: B1 chain with A18L, L208W
B6: ispB M135W (protein)
chain: MNLEKINELTAQDMAGVNAAILEQLNSDVQLINQLGYYIVSGGGKRIRPMIAVLAARAVGYEGNAHVTIAALIEFIHTATLLHDDVVDESDMRRGKATANAAFGNAASVLVGDFIYTRAFQMMTSLGSLKVLEVWSEAVNVIAEGEVLQLMNVNDPDITEENYMRVIYSKTARLFEAAAQCSGILAGCTPEEEKGLQDYGRYLGTAFQLIDDLLDYNADGEQLGKNVGDDLNEGKPTLPLLHAMHHGTPEQAQMIRTAIEQGNGRHLLEPVLEAMNACGSLEWTRQRAEEEADKAIAALQVLPDTPWREALIGLAHIAVQRDR
B7: ispB V271A (protein)
chain: B6 chain with W135M, V271A
B8: ispB V271W (protein)
chain: B6 chain with W135M, V271W
B9: ispB V271Q (protein)
chain: B6 chain with W135M, V271Q
B10: ispB I32A (protein)
chain: B6 chain with I32A, W135M
B11: ispB I32W (protein)
chain: B6 chain with I32W, W135M
B12: ispB I32Q (protein)
chain: B6 chain with I32Q, W135M
B13: ispB I32P (protein)
chain: B6 chain with I32P, W135M
B14: ispB L110A (protein)
chain: B6 chain with L110A, W135M

Each protein was assayed against Escherichia coli (laboratory strain) (assay: barcode share on antibiotic plates over drug-free plates; higher = less susceptible). Settings: antibiotic: carbenicillin; 2× MIC (3.1 µg/mL).
Description: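 A pool of E. coli strains, each edited to carry one amino-acid change in an essential protein, was grown for 48 h on minimal glucose agar with or without antibiotic; strain barcodes were sequenced; mean of two replicates.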

Protein | fold change of barcode share
B1 | 0.472 ± 0.032
B2 | 0.338 ± 0.011
B3 | 0.482 ± 0.11
B4 | 0.31 ± 0.05
B5 | 2.04 ± 1
B6 | 0.109 ± 0.0077
B7 | 0.231 ± 0.0065
B8 | 0.711 ± 0.16
B9 | 0.899 ± 0.25
B10 | 0.502 ± 0.18
B11 | 0.535 ± 0.084
B12 | 0.474 ± 0.047
B13 | 0.396 ± 0.064
B14 | 0.418 ± 0.15

Same assay, conditions: antibiotic: gentamicin; 2× MIC (MIC 0.45 µg/mL)

Protein | fold change of barcode share
B1 | 4.32 ± 5.7
B2 | 1.12 ± 1.3
B3 | 2.83 ± 3.9
B4 | 0.265 ± 0.29
B6 | < 0.0167
B7 | 0.00437 ± 0.0033
B8 | 208 [active]
B9 | 18.4 ± 5.3
B10 | 0.00898 ± 0.0057
B11 | 0.212 ± 0.15
B12 | < 0.00511
B13 | 0.0125 ± 0.011
B14 | < 0.00905
